The source gives many values for each of these; only a part stands here.
How the values were obtained:
[1] = system: Rat; assay: concentration in plasma after dosing; conditions: 0.75 h; dosed: 2-Methyltetrahydrofuran; 30 mg/kg; oral; Female; F344
[2] = system: Rat; assay: concentration in plasma after dosing; conditions: 1.5 h; dosed: 2-Methyltetrahydrofuran; 100 mg/kg; oral; Male; Harlan Sprague Dawley
[3] = system: Rat; assay: concentration in brain after dosing; conditions: 10 min; dosed: 2-Methyltetrahydrofuran; 10 mg/kg; oral; Female; F344
[4] = system: Rat; assay: concentration in brain after dosing; conditions: 0.25 h; dosed: 2-Methyltetrahydrofuran; 10 mg/kg; oral; Male; F344
[5] = system: Rat; assay: concentration in brain after dosing; conditions: 2.5 h; dosed: 2-Methyltetrahydrofuran; 10 mg/kg; oral; Female; F344
[6] = system: Rat; assay: concentration in plasma after dosing; conditions: 8 h; dosed: 2-Methyltetrahydrofuran; 400 mg/kg; oral; Male; F344
[7] = system: Rat; assay: concentration in plasma after dosing; conditions: 0.25 h; dosed: 2-Methyltetrahydrofuran; 10 mg/kg; oral; Female; F344
[8] = system: Rat; assay: concentration in plasma after dosing; conditions: 8 h; dosed: 2-Methyltetrahydrofuran; 100 mg/kg; oral; Male; Harlan Sprague Dawley
[9] = system: Rat; assay: concentration in plasma after dosing; conditions: 2 h; dosed: 2-Methyltetrahydrofuran; 30 mg/kg; oral; Female; F344
[10] = system: Rat; assay: concentration in brain after dosing; conditions: 5 min; dosed: 2-Methyltetrahydrofuran; 100 mg/kg; oral; Female; Harlan Sprague Dawley
[11] = system: Rat; assay: concentration in plasma after dosing; conditions: 0.25 h; dosed: 2-Methyltetrahydrofuran; 30 mg/kg; oral; Male; F344
[12] = system: Rat; assay: concentration in plasma after dosing; conditions: 20 min; dosed: 2-Methyltetrahydrofuran; 10 mg/kg; oral; Female; F344
[13] = system: Rat; assay: concentration in brain after dosing; conditions: 2 min; dosed: 2-Methyltetrahydrofuran; 30 mg/kg; oral; Male; F344
[14] = system: Rat; assay: concentration in plasma after dosing; conditions: 1.5 h; dosed: 2-Methyltetrahydrofuran; 30 mg/kg; oral; Male; F344
[15] = system: Rat; assay: concentration in plasma after dosing; conditions: dosed: Bromochloroacetic acid, 100 mg/kg, oral, Female, F344
[16] = system: Rat; assay: concentration in plasma after dosing; conditions: dosed: Bromochloroacetic acid, 80 mg/kg, iv, Female, Harlan Sprague-Dawley
[17] = system: Rat; assay: concentration in plasma after dosing; conditions: 0.75 h; dosed: Bromochloroacetic acid; 100 mg/kg; oral; Female; F344
[18] = system: Rat; assay: concentration in plasma after dosing; conditions: dosed: Fluorotelomer alcohol 8+2, 48 mg/kg, oral, Male, Harlan Sprague Dawley
[19] = system: Rat; assay: concentration in plasma after dosing; conditions: dosed: Fluorotelomer alcohol 8+2, 48 mg/kg, oral, Male, Harlan Sprague Dawley; remark: listed apart in the source
[20] = system: Rat; assay: concentration in plasma after dosing; conditions: dosed: Fluorotelomer alcohol 8+2, 160 mg/kg, oral, Female, Harlan Sprague Dawley
[21] = system: Rat; assay: concentration in plasma after dosing; conditions: dosed: Fluorotelomer alcohol 8+2, 160 mg/kg, oral, Female, Harlan Sprague Dawley; remark: listed apart in the source
[22] = system: Rat; assay: concentration in plasma after dosing; conditions: dosed: Formamide, 30 mg/kg, iv, Female, F344
[23] = system: Rat; assay: concentration in plasma after dosing; conditions: 0.5 h; dosed: Formamide; 30 mg/kg; iv; Female; F344
[24] = system: Rat; assay: concentration in plasma after dosing; conditions: dosed: Formamide, 300 mg/kg, oral, Female, F344
[25] = system: Rat; assay: concentration in plasma after dosing; conditions: dosed: Formamide, 600 mg/kg, oral, Male, Harlan Sprague Dawley
[26] = system: Rat; assay: concentration in plasma after dosing; conditions: dosed: Formamide, 90 mg/kg, iv, Male, Harlan Sprague Dawley
[27] = system: Rat; assay: concentration in plasma after dosing; conditions: dosed: Formamide, 30 mg/kg, iv, Female, F344; remark: listed apart in the source
[28] = system: Rat; assay: concentration in plasma after dosing; conditions: 5 h; dosed: Formamide; 30 mg/kg; iv; Female; F344
[29] = system: Rat; assay: concentration in plasma after dosing; conditions: 5 h; dosed: Formamide; 30 mg/kg; iv; Female; F344; remark: listed apart in the source
[30] = system: Rat; assay: concentration in plasma after dosing; conditions: 10 min; dosed: Pyridine; 200 mg/kg; oral; Female; F344
[31] = system: Rat; assay: concentration in plasma after dosing; conditions: dosed: Pyridine, 100 mg/kg, oral, Male, F344
[32] = system: Rat; assay: concentration in plasma after dosing; conditions: 10 min; dosed: Pyridine; 50 mg/kg; oral; Female; F344
[33] = system: Rat; assay: concentration in plasma after dosing; conditions: 2 min; dosed: Pyridine; 200 mg/kg; oral; Female; Harlan Sprague Dawley
[34] = system: Rat; assay: concentration in plasma after dosing; conditions: 6 h; dosed: Pyridine; 50 mg/kg; oral; Female; F344
[35] = system: Rat; assay: concentration in plasma after dosing; conditions: dosed: Pyridine, 100 mg/kg, oral, Male, F344; remark: listed apart in the source
[36] = system: Rat; assay: concentration in plasma after dosing; conditions: 2 h; dosed: Pyridine; 50 mg/kg; oral; Female; F344
[37] = system: Rat; assay: concentration in plasma after dosing; conditions: 2 h; dosed: Pyridine; 5 mg/kg; iv; Female; F344

CC1CCCO1 (stereo not given) [2-Methyltetrahydrofuran]
Conditions	concentration in brain [µg/g]	concentration in plasma [ng/mL]
[1]	–	15300
[2]	–	37800
[3]	1.93	–
[4]	4.11	–
[5]	0.0304	–
[6]	–	72400
[7]	–	3260
[8]	–	87.3
[9]	–	3370
[10]	41.7	–
[11]	–	19600
[12]	–	2870
[13]	3.13	–
[14]	–	15600

O=C(O)C(Cl)Br (stereo not given) [Bromochloroacetic acid]
concentration in plasma [ng/mL]
Conditions	1.5 h	2 h	2 min	3 h
[15]	32500	–	2710	–
[16]	–	3190	–	696

Conditions	concentration in plasma [ng/mL]
[17]	52600

OCCC(F)(F)C(F)(F)C(F)(F)C(F)(F)C(F)(F)C(F)(F)C(F)(F)C(F)(F)F [Fluorotelomer alcohol 8+2]
Conditions	concentration in plasma [ng/mL]
[18], 3 h	430
[18], 5 min	1.26
[19], 0.75 h	187
[19], 12 h	25.3
[20], 0.75 h	1540
[20], 12 h	917
[21], 1 h	1800
[21], 24 h	231

NC=O [Formamide]
Conditions	concentration in plasma [ng/mL]
[22], 0.25 h	39800
[22], 24 h	5400
[24], 10 min	113000
[24], 20 h	151000
[25], 1 h	707000
[25], 72 h	26000
[26], 0.25 h	198000
[26], 24 h	20500
[27], 10 min	41500
[27], 18 h	11600

Conditions	concentration in plasma [ng/mL]
[23]	31700
[28]	31100
[29]	28700

c1ccncc1 [Pyridine]
Conditions	concentration in plasma [ng/mL]
[30]	60500
[32]	41900
[33]	71600
[34]	14500
[36]	21400
[37]	2460

concentration in plasma [ng/mL]
Conditions	0.5 h	4 h	5 min	6 h
[31]	53100	–	–	59200
[35]	–	60800	21200	–

— EPA's CvTdb concentration-time database
